This passage reports relative growth results from the supplement of paper PMC9446081.

Among all 39,000 compounds or so, about 220 (0.56%) showed activity. The list shows a part of the results.
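Note: static incubation at 37 °C against the wild-type strain, values averaged over two biological replicates.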

This assay deals with Escherichia coli K-12 BW25113. Description: relative growth (OD600 normalised to plate interquartile mean) (fraction); higher = less growth inhibition, active = 0.2 or less. As to conditions: 50 µM; LB; incubation time: overnight (16-24 h).
For the compound `CN1C(=O)c2cc(NC(=O)Cc3cccs3)ccc2OC[C@@H]2O[C@@H](CC(=O)NCCCN3CCOCC3)CC[C@@H]21`, the relative growth is inactive: 1.01. The figure for `C[C@H](CO)N1C[C@H](C)[C@H](CN(C)Cc2ccc(-c3ccccc3)cc2)Oc2ccc(NC(=O)Nc3ccc(C(F)(F)F)cc3)cc2C1=O` is inactive: 1.01. With `CO[C@@H]1CN(C)C(=O)c2cc(NC(=O)c3ccccc3)ccc2OC[C@H](C)N(C(=O)CN(C)C)C[C@H]1C`, the relative growth was inactive: 1.02. As for `C[C@H](CO)N1C[C@H](C)[C@H](CN(C)C(=O)NC2CCCCC2)Oc2c(NC(=O)Nc3cccc4ccccc34)cccc2C1=O`, the figure is inactive: 1.01; as for `Cc1noc(C)c1S(=O)(=O)Nc1ccc2c(c1)C(=O)N([C@H](C)CO)C[C@H](C)[C@H](CN(C)Cc1ccc(C(=O)O)cc1)O2`, inactive: 0.992; as for `CC(C)NC(=O)Nc1ccc2c(c1)C(=O)N([C@@H](C)CO)C[C@H](C)[C@@H](CN(C)C(=O)Nc1ccc(F)cc1)OCCCC[C@H](C)O2`, inactive: 1.04. Turning to `C[C@@H]1CN([C@H](C)CO)C(=O)c2cc(NC(=O)Nc3ccc4c(c3)OCO4)ccc2O[C@@H](C)CCCCO[C@H]1CN(C)C(=O)C1CCCCC1`, the relative growth is inactive: 1.01. As for `C[C@H](CO)N1C[C@H](C)[C@@H](CN(C)Cc2ccc(-c3ccccc3)cc2)Oc2c(NS(=O)(=O)c3ccc(Cl)cc3)cccc2C1=O`, the figure is inactive: 1.02; as for `C[C@@H]1CN([C@H](C)CO)C(=O)c2cc(NC(=O)Nc3ccc4c(c3)OCO4)ccc2O[C@@H](C)CCCCO[C@@H]1CN(C)Cc1ccc(C(F)(F)F)cc1`, inactive: 0.999.

Consider `CS(=O)(=O)Nc1ccc2oc3c(OC(F)F)ccc(C(=O)Nc4c(Cl)cncc4Cl)c3c2c1`, for which the relative growth was inactive: 1.07. `C=CC[C@@H](CC(=O)NCCO)C(=O)N[C@@H](C)COC(=O)[C@@H](CC=C)NC(=O)OCC1c2ccccc2-c2ccccc21`: the relative growth is inactive: 0.986. As for `CNC[C@@H]1Oc2ccc(NS(=O)(=O)c3cn(C)cn3)cc2CC(=O)N([C@@H](C)CO)C[C@@H]1C`, the figure is inactive: 0.918.

As to `Cc1cn([C@H]2C[C@H](O)[C@@H](CO)O2)c(=O)[nH]c1=O`, the relative growth was inactive: 1.03. With `C[C@@H]1CN([C@@H](C)CO)C(=O)c2cc(Br)cnc2O[C@H]1CN(C)Cc1ccccc1C(=O)O`, the relative growth was inactive: 0.993. As for `COc1ccc(CN(C)C[C@H]2Oc3ccc(NS(=O)(=O)c4c(C)noc4C)cc3CC(=O)N([C@@H](C)CO)C[C@@H]2C)cc1`, the figure is inactive: 0.995. As for `C[C@@H]1CN([C@@H](C)CO)C(=O)c2cc(-c3ccc(C#N)cc3)cnc2O[C@@H]1CN(C)C(=O)Nc1ccc(C(F)(F)F)cc1`, the relative growth was inactive: 0.993. As for `COc1ccc(S(=O)(=O)Nc2ccc3c(c2)C(=O)N([C@@H](C)CO)C[C@@H](C)[C@H](CN(C)S(=O)(=O)c2cn(C)cn2)OCCCC[C@@H](C)O3)cc1`, the figure is inactive: 1.01; as for `C[C@@H]1CCCCO[C@@H](CN(C)C(=O)Nc2ccc3c(c2)OCO3)[C@H](C)CN([C@H](C)CO)C(=O)c2cc(NC(=O)CCC(F)(F)F)ccc2O1`, inactive: 1.01; as for `CC(C)Oc1cccc(CC(=O)N2CCC[C@](CC[N+]34CCC(c5ccccc5)(CC3)CC4)(c3ccc(Cl)c(Cl)c3)C2)c1`, inactive: 0.979.

Turning to `C[C@@H]1CN([C@@H](C)CO)C(=O)c2cc(C#CCN(C)C)cnc2O[C@@H]1CN(C)C(=O)Nc1cccc(F)c1`, the relative growth was inactive: 1.

For `CC(C)NC(=O)Nc1cccc2c1O[C@H](CN(C)Cc1ccc(C(=O)O)cc1)[C@H](C)CN([C@H](C)CO)C2=O`, the relative growth is inactive: 0.993. As for `NC(=O)CCCCC1CCSS1` (stereo not drawn), the figure is inactive: 1.18; as for `CC(C)NC(=O)Nc1cccc2c1O[C@@H](CN(C)S(=O)(=O)c1ccccc1)[C@@H](C)CN([C@H](C)CO)C2=O`, inactive: 0.995. The figure for `COc1cccc(-c2cccc(-c3nc(C(=O)NCC(F)(F)F)cc4c3[C@@H](CCO)N([S@](=O)C(C)(C)C)C4)c2)c1` is inactive: 0.928; for `Cc1noc(C)c1NC(=O)Nc1cccc2c1O[C@H](CN(C)Cc1ccc(Cl)c(Cl)c1)[C@@H](C)CN([C@H](C)CO)C2=O` it is inactive: 1.

As for `COc1ccc(NC(=O)N(C)C[C@H]2OCCCC[C@H](C)Oc3ccc(NS(=O)(=O)c4cccs4)cc3C(=O)N([C@@H](C)CO)C[C@H]2C)cc1`, the relative growth is inactive: 1.03. With `CC(C)CCN1CCc2nnc(CO)n2CC1`, the relative growth was inactive: 1. The figure for `O=C(C[C@H]1C=C[C@@H](NC(=O)CN2CCOCC2)[C@@H](CO)O1)NC1CCCCC1` is inactive: 0.987; for `COc1ccc(C2=CCCC2)cc1` it is inactive: 0.984. As for `CC(/C=C/C(=O)NO)=C\c1ccccc1OCc1cn(-c2ccc(C[C@H]3C(=O)O[C@@H](Cc4ccccc4)[C@H]4[C@@H]5C=CCCC=C5CN43)cc2)nn1`, the figure is inactive: 1.01; as for `C[C@H](C(=O)O)N1C(=O)CSC1=O`, inactive: 1.01; as for `COc1cc2ccccc2cc1C(=O)OCC(=O)N(CC(C)C)c1c(N)n(Cc2ccccc2)c(=O)[nH]c1=O`, inactive: 1.03. As for `C[C@H](CO)N1C[C@H](C)[C@@H](CN(C)C(=O)CCCN(C)C)OCc2cn(nn2)CCCC1=O`, the figure is inactive: 1.01; as for `O=C(OOC(=O)c1ccccc1)c1ccccc1`, inactive: 0.938; as for `Cn1cnc(S(=O)(=O)N[C@@H]2CC[C@@H](CC(=O)N3CCN(c4ccccc4)CC3)O[C@@H]2CO)c1`, inactive: 0.99. In the case of `CO[C@@H](CN(C)S(=O)(=O)c1ccc(Cl)cc1)[C@@H](C)CN([C@H](C)CO)S(=O)(=O)c1cccc(Cl)c1`, the relative growth is inactive: 0.893. Take `C[C@H](CO)N1C[C@H](C)[C@H](CN(C)C(=O)c2ccc(F)cc2)OCc2ccccc2-c2c(n(C)c3ccccc23)C1=O`: the relative growth was inactive: 1.01.

Regarding `C[C@@H]1CCCCO[C@@H](CN(C)S(=O)(=O)c2ccccc2)[C@H](C)CN([C@@H](C)CO)C(=O)c2cc(NC(=O)Nc3ccc(C(F)(F)F)cc3)ccc2O1`, the relative growth was inactive: 1.01. The figure for `COc1ccc(S(=O)(=O)N(C)C[C@H]2Oc3c(NC(=O)NC(C)C)cccc3C(=O)N([C@@H](C)CO)C[C@H]2C)cc1` is inactive: 1; for `Cc1noc(C)c1NC(=O)Nc1cccc2c1O[C@H](CN(C)C(=O)NC(C)C)[C@@H](C)CN([C@H](C)CO)C2=O` it is inactive: 1.03. For the compound `COc1ccc(S(=O)(=O)N(C)C[C@H]2Oc3c(NC(=O)Nc4c(C)noc4C)cccc3C(=O)N([C@H](C)CO)C[C@H]2C)cc1`, the relative growth is inactive: 0.982. As for `Cc1ccc(S(=O)(=O)N(C)C[C@@H]2Oc3ccc(NS(=O)(=O)c4ccccc4)cc3C(=O)N([C@@H](C)CO)C[C@@H]2C)cc1`, the figure is inactive: 0.981; as for `O=c1c(-c2nn[nH]n2)coc2ccccc12`, inactive: 0.98. The figure for `CCC1(C)OC(=O)N(C)C1=O` (stereo not drawn) is inactive: 0.999; for `Nc1nc(=O)c2c([nH]1)NCC(CNc1ccc(C(=O)NC(CCC(=O)[O-])C(=O)[O-])cc1)N2C=O.[Ca+2]` (stereo not drawn) it is inactive: 1.05. As for `NCCSC(=S)NC1CCCCCCC1`, the figure is inactive: 0.961. For the compound `CC(C)NC(=O)Nc1ccc2c(c1)C(=O)N(C)[C@H]1CC[C@@H](CC(=O)NCc3ccc(F)cc3)O[C@H]1CO2`, the relative growth is inactive: 1.02. As for `NCCCC[C@H](N)C(=O)O`, the figure is inactive: 1.01; as for `CC(O)Cn1cnc2c1c(=O)n(C)c(=O)n2C` (stereo not drawn), inactive: 0.951; as for `C[C@H](NC(=O)N(C)C[C@H]1OCc2ccccc2-c2c(n(C)c3ccccc23)C(=O)N([C@H](C)CO)C[C@@H]1C)c1ccccc1`, inactive: 0.989. As for `C[C@H](CO)N1C[C@H](C)[C@@H](CN(C)C(=O)C2CCCCC2)OCCCC[C@H](C)Oc2ccc(NC(=O)Nc3ccc(F)cc3)cc2C1=O`, the figure is inactive: 1.04; as for `Cc1noc(C)c1S(=O)(=O)Nc1ccc2c(c1)C(=O)N([C@H](C)CO)C[C@H](C)[C@H](CN(C)Cc1ccc3c(c1)OCO3)O2`, inactive: 0.967. As for `COc1ccc(NC(=O)N2C[C@H](O)COC[C@H]3O[C@H](CC(=O)NC4Cc5ccccc5C4)CC[C@@H]32)cc1`, the figure is inactive: 1.01; as for `C[C@@H]1CN([C@@H](C)CO)C(=O)c2cc(NS(=O)(=O)c3cn(C)cn3)ccc2O[C@@H](C)CCCCO[C@@H]1CN(C)C(=O)Nc1ccc(C(F)(F)F)cc1`, inactive: 0.923. Regarding `CO[C@H](C(=O)N(C)C[C@H]1OCc2ccccc2-c2c(n(C)c3ccccc23)C(=O)N([C@H](C)CO)C[C@@H]1C)c1ccccc1`, the relative growth was inactive: 0.974. The figure for `Cc1noc(C)c1S(=O)(=O)Nc1ccc2c(c1)C(=O)N([C@H](C)CO)C[C@@H](C)[C@@H](CN(C)S(=O)(=O)c1cccs1)O2` is inactive: 0.998; for `COc1ccc(NC(=O)Nc2ccc3c(c2)C(=O)N([C@H](C)CO)C[C@@H](C)[C@H](CN(C)Cc2ccc(-c4ccccc4)cc2)O3)cc1` it is inactive: 0.999; for `C[C@@H]1CN([C@H](C)CO)C(=O)c2cccc(NC(=O)Nc3ccccc3)c2O[C@H]1CN(C)S(C)(=O)=O` it is inactive: 1.02.

`FC(F)(F)c1ccc(/C=N/c2cc(Cl)cc(Cl)c2)cc1`: the relative growth is inactive: 1.03. The figure for `C[C@@H]1CN([C@H](C)CO)C(=O)c2cc(NC(=O)Cn3cnnn3)ccc2O[C@@H]1CN(C)S(=O)(=O)c1cn(C)cn1` is inactive: 1.01.

Take `COc1ccc(NC(=O)N(C)C[C@H]2OCCCC[C@H](C)Oc3ccc(NS(=O)(=O)c4ccc(C)cc4)cc3C(=O)N([C@@H](C)CO)C[C@@H]2C)cc1`: the relative growth was inactive: 0.954. The figure for `COc1cccc(NC(=O)N(C)C[C@@H]2OCc3ccccc3-c3c(n(C)c4ccccc34)C(=O)N([C@@H](C)CO)C[C@H]2C)c1` is inactive: 1. As for `C[C@@H]1CN([C@H](C)CO)S(=O)(=O)c2ccc(C#CCN(C)C)cc2O[C@H]1CN(C)Cc1ccccc1F`, the figure is inactive: 0.995.
